Among all 310,000 compounds or so, about 2,200 (0.71%) showed an effect of 50% or more. Effects have a minus sign here. The list shows a part of the results.
Molecular target: human ether-à-go-go-related gene (hERG) potassium channel (human, UniProt Q12809)
Experiment: primary screen, population patch clamp on CHO cells stably expressing hERG

Sequence of human ether-à-go-go-related gene (hERG) potassium channel (Q12809 whole entry, looked up): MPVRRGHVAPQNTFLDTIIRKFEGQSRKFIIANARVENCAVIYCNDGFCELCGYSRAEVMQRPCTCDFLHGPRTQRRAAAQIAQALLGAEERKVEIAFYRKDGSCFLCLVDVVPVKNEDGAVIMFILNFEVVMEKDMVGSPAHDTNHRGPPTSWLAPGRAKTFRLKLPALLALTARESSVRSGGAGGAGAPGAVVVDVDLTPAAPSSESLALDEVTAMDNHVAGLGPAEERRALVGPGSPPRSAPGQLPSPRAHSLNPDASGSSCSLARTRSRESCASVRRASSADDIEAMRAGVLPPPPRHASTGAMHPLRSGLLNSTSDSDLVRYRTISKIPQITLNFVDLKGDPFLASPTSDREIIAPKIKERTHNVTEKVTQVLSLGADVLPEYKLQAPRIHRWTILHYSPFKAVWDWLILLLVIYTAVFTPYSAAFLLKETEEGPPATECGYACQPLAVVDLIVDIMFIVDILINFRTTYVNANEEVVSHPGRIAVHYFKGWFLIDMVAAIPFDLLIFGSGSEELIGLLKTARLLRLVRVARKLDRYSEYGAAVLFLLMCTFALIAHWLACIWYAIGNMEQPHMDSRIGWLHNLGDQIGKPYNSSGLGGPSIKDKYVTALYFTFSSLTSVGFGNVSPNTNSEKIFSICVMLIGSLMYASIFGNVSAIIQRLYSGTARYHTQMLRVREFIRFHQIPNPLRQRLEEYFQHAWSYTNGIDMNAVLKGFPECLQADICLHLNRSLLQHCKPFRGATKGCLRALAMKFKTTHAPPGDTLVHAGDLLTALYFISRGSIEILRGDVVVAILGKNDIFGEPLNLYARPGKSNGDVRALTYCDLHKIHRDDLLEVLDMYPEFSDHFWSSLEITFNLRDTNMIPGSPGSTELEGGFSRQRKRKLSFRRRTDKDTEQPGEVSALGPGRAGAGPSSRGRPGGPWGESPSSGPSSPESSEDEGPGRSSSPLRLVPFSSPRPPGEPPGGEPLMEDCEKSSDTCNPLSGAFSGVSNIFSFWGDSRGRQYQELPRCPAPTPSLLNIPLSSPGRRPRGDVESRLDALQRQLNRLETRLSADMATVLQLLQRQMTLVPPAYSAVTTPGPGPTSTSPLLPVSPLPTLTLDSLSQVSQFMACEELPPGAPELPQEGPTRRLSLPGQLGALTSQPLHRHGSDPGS

Compound | hERG current change (%, negative = inhibition) at 1uM [%]
CC(C)Oc1ccccc1/C=N/n1nnnc1N | 10.6
COC(=O)CCCCC1SCC2NC(=O)NC21O (stereo not drawn) | 11.4
O=C(Nc1cccnc1)c1cccnc1 | 16.4
CSc1nnc2n(-c3ccccc3)c(=O)c3c4c(sc3n12)CCC4 | -2.71
CC1CCN(Cc2ccc(-c3nn[nH]n3)cc2)CC1 | 20.5
CNc1nc(-c2ccc(Cl)cc2)cs1 | 11.2
CC(C)(C)NS(=O)(=O)c1ccc(NC(=O)C2CC(=O)N(CCc3ccc(F)cc3)C2)cc1 (stereo not drawn) | 8.69
O=C(O)c1cc2nccc(-c3ccco3)n2n1 | 8.26
O=C1c2oc3ccc(Br)cc3c(=O)c2C(c2cccc(F)c2)N1CCO (stereo not drawn) | 13
O=C(COC(=O)Cc1cn2ccsc2n1)Nc1nc2ccccc2s1 | 11.5
CCCCNC(=S)N/N=C/c1cc(C)ccc1C | 2.76
C[C@]12CCC3c4ccc(OCC(=O)O)cc4CCC3C1CCC2=O (stereo partly drawn) | 12.9
OCCC1CN(Cc2cc(F)ccc2-n2cccn2)CCN1Cc1ccc(F)cc1 (stereo not drawn) | -36.9
CC(C)(C)c1ccc(C2C(C(=O)c3ccco3)=C(O)C(=O)N2CC2CCCO2)cc1 (stereo not drawn) | 15.1
CC(C)c1ccc(NC(=O)C(c2ccccc2)N2CCN(C(=O)c3ccco3)CC2)cc1 (stereo not drawn) | 11.3
CC(=O)c1cccc(NC(=O)c2ccc3c(=O)n4c(nc3c2)CCCCC4)c1 | -39.1
CC(=O)c1ccc(OCC(O)CN2CCN(Cc3ccc4c(c3)OCO4)CC2)cc1 (stereo not drawn) | -12
COCCNC(=S)NNC(=O)c1ccco1 | 0.561
CC(=O)Nc1ccc(N2CCN(Cc3ccccc3)CC2)cc1 | 2.6

Compound | hERG current change (%, negative = inhibition) at 1uM [%]
COc1ccc(C(=O)CCC(=O)NCc2cc(OC)cc(OC)c2)cc1 | 23.4
Cc1ccnc(NS(=O)(=O)c2ccc(NC(=O)CN3C(=O)CCC3=O)cc2)n1 | 4.33
CCN1CCc2nc(NC(=O)c3ccc4c(c3)OCCO4)sc2C1 | 6.09
CCN(CC)C(=O)c1ccc(S(=O)(=O)c2ccccc2)cc1 | 16.8
Cc1[nH]c2ccccc2c1C(=O)C(=O)NCCC1=CCCCC1 | 8.43
CCN(CC)C(=O)CN(c1cccc(OC)c1)S(=O)(=O)c1ccc(C)cc1 | 13.2
Cc1ccc(C(=O)NCc2ccco2)cc1 | 15.8
CSc1ccccc1C(=O)C1CCCN(C(=O)CCc2cccnc2)C1 (stereo not drawn) | 8.69
Cn1cc([N+](=O)[O-])c(C(=O)N/N=C/c2ccccc2)n1 | 8.41
CCCN(CCC)C(=O)C1CCN(c2ccc(S(=O)(=O)N3CCOCC3)cc2[N+](=O)[O-])CC1 | -3.56
C=CCOc1ccccc1CN1CCSCC1 | -1.02
NC(=S)N/N=C/c1ccc2c(c1)OCCO2 | 13.7
O=C(Cn1cnc2c(oc3nc4c(cc32)CCCC4)c1=O)Nc1cccc(Cl)c1 | 9.78
O=C(O)C(F)=C1c2ccccc2-c2ccccc21 | 14.5
CC(C)Oc1ccc(CSc2nnc3n(C)c(=O)c4c5c(sc4n23)CCCC5)cc1 | 0.037
COc1cccc(C(=O)NCCS(=O)(=O)NCc2ccc3c(c2)OCO3)c1 | 3.34
COc1ccc(C[C@H]2COC(=O)[C@@H]2Cc2ccc(OC3OC(CO)C(O)C(O)C3O)c(OC)c2)cc1OC (stereo partly drawn) | 15.4
CC(=O)c1ccc(N2CCN(C(=O)Cn3cnc(S(=O)(=O)N4CCCCC4)c3)CC2)cc1 | 8.27
CC1(C)OC(=O)C(=CNC(Cc2c[nH]c3ccccc23)C(=O)O)C(=O)O1 (stereo not drawn) | 12.2

Compound | hERG current change (%, negative = inhibition) at 1uM [%]
CCc1ccc(CNC(=O)C2CCN(c3nnc(C)c4c(C)n(-c5ccc(C)cc5)nc34)CC2)cc1 | 11.6
O=C(O)c1csc(Cc2ccccc2)n1 | 9.37
NC(=O)c1nn(CC(=O)Nc2cccc(S(=O)(=O)N3CCCC3)c2)c(=O)c2ccccc12 | 7.71
O=C(Nc1ccc2c(c1)OCO2)Nc1ccc(Br)cn1 | 1.68
C=C(C)C(=O)Nc1cccc(C2=NOC3(C2)C[C@@H](C(N)=O)N(C(=O)/C(C)=C/C)C3)c1 (stereo partly drawn) | 20.1
COc1ccc(S(=O)(=O)N2CCOCC2)cc1NC(=O)c1ccccc1-c1ccc(C(F)(F)F)cc1 | 4.2
COc1ccc(OCC(=O)Nc2ccccc2C(=O)N2CCCC2)cc1 | -2.47
O=C(/C=C/c1ccc(Br)o1)OCc1nc2ccsc2c(=O)[nH]1 | 15.5
CCOC(=O)[C@H]1[C@H]2COc3ccccc3[C@@H]2N2C(=O)CNC(=O)[C@@]12C | 17.6
Cc1ccc(S(=O)(=O)NCC(=O)NCC2CCCCC2)cc1C | 13.9
Cc1ccc(C)c(N2CCN(C(=O)CCC(=O)Nc3nnc(C(F)(F)F)s3)CC2)c1 | 15
COC(=O)/C(C#N)=C/c1ccc(C)o1 | 3.28
COc1cc(/C=C/c2cccc[n+]2C)ccc1OCC(=O)Nc1ccccc1.[I-] | 17.5
CCC(CC)C(=O)N1CC(=O)Nc2ccc(C)cc2C1c1ccccc1 (stereo not drawn) | -6.45
CCCCn1c(N)c(N(CC(C)C)C(=O)c2oc3ccc(OCC)cc3c2C)c(=O)[nH]c1=O | 12.5
COc1ccc(CCN(CC(=O)NC(C)(C)C)C(=O)Cn2nnc(-c3ccc(C)o3)n2)cc1OC | 16.1
CC1Oc2ccccc2N(CC(=O)NCCN2CCOCC2)C1=O (stereo not drawn) | 0.595
CCOC(=O)c1c(N)sn(-c2ccccc2C)c1=S | -9.41
COc1ccc(Nc2nc3c(C)cccn3c(=O)c2C=NCc2ccccc2)cc1 | 10.5
